Measurements reported in the supplement of paper PMC3334620.
Whole data set: some 33,000 sequences, median “E-score (-0.5 to 0.5)” near -0.056, cut for the highest 2% near 0.38. The list shows a part of the results.

Each sequence was assayed against Stb4 (UniProt P50104) (assay: PBM E-score (8-mer binding enrichment) (E-score (-0.5 to 0.5)); higher = stronger / more preferred TF binding; most listed sequences are background and not binding sites). Conditions: protein concentration: 200 nM; construct: GST-DNA-binding domain.
Summary of the method: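 E-scores (a modified Wilcoxon-Mann-Whitney statistic) were assigned by the Universal PBM Analysis Suite to every ungapped eight-base word pooled with its reverse complement. The input came from universal all-10-mer Agilent arrays made double-stranded by primer extension and probed with GST-tagged yeast transcription factors at about 100-200 nM. Fluorescent anti-GST detected bound protein, and masliner normalised the scans.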
For CAGGATAA, the “PBM E-score” value was -0.12. AACGGATT was tested, and the “PBM E-score” value was 0.155. In the case of CCGGACCG, the “PBM E-score” value is reported as 0.352. In the case of TACAAAGA, the “PBM E-score” value is reported as 0.00433. For ACCGATAG, the “PBM E-score” value was 0.134. For AGCAATCC, the “PBM E-score” value was 0.0833. With CCGGCGGA the “PBM E-score” value was 0.365. In the case of CATCAGAG, the “PBM E-score” value is reported as -0.205. For GCTTGAAC, the “PBM E-score” value was -0.0164. For ACTGGGCG, the “PBM E-score” value was -0.0808. In the case of ACGGTGCA, the “PBM E-score” value is reported as -0.216. In the case of CTCGGGAC, the “PBM E-score” value is reported as 0.45. For TACTGTGA, the “PBM E-score” value was -0.0686. In the case of GGGACACC, the “PBM E-score” value is reported as 0.139. In the case of ACGTTGTA, the “PBM E-score” value is reported as -0.179. With CAAGTGCC the “PBM E-score” value was -0.145. For AAGGATGG, the “PBM E-score” value was -0.0659. In the case of GGGCTGCA, the “PBM E-score” value is reported as -0.092. With ATCGACCC the “PBM E-score” value was 0.137. GGCTGTAC was tested, and the “PBM E-score” value was -0.0835. With GGTAATGA the “PBM E-score” value was 0.142. In the case of CAAATTAG, the “PBM E-score” value is reported as -0.153. For AAATGTTA, the “PBM E-score” value was 0.0118. With CGTCCGCC the “PBM E-score” value was 0.184. GATGCGGA was tested, and the “PBM E-score” value was 0.23. With GTCTCTCA the “PBM E-score” value was -0.0855. With ATAATACC the “PBM E-score” value was 0.168. In the case of CCTGGAAC, the “PBM E-score” value is reported as -0.19. CCAGATCA was tested, and the “PBM E-score” value was -0.11. In the case of GGGTGCAC, the “PBM E-score” value is reported as -0.0674. With AGGTCAAC the “PBM E-score” value was -0.183. In the case of ATCGTCGA, the “PBM E-score” value is reported as -0.0764. For GCTAGAAC, the “PBM E-score” value was -0.109. CCTGGCCA was tested, and the “PBM E-score” value was -0.225. In the case of CTCAGCCA, the “PBM E-score” value is reported as -0.159. With CACACCCG the “PBM E-score” value was 0.3. GCCAAAAC was tested, and the “PBM E-score” value was -0.0281. For TAATAAAA, the “PBM E-score” value was -0.0954. In the case of CTGATTTC, the “PBM E-score” value is reported as -0.0899. With CAGGGCCA the “PBM E-score” value was -0.284. For AACGCTAT, the “PBM E-score” value was -0.00059. ACGATCCT was tested, and the “PBM E-score” value was -0.122. With AAGAGGGC the “PBM E-score” value was -0.307. In the case of ACTGTCCC, the “PBM E-score” value is reported as -0.0308. For TAGTCGCA, the “PBM E-score” value was -0.0285. For CGAATGCG, the “PBM E-score” value was 0.177. AGCTCCAG was tested, and the “PBM E-score” value was -0.23. With CATTTTAA the “PBM E-score” value was 0.0126. In the case of CCGCGATA, the “PBM E-score” value is reported as 0.115. For GCCGGTTA, the “PBM E-score” value was 0.182. In the case of GCACGAGA, the “PBM E-score” value is reported as -0.0157. In the case of CACGTGAC, the “PBM E-score” value is reported as -0.103. With CAATTAGA the “PBM E-score” value was -0.273. In the case of GCTTTTGA, the “PBM E-score” value is reported as -0.0138. With CATCATGG the “PBM E-score” value was -0.0411. For CTCTTCAC, the “PBM E-score” value was -0.253. In the case of CCATCGGC, the “PBM E-score” value is reported as 0.303. For AATAATCA, the “PBM E-score” value was -0.0307. In the case of AAGTTATG, the “PBM E-score” value is reported as -0.135. For ATCTACGA, the “PBM E-score” value was -0.165. In the case of ACGTGAGT, the “PBM E-score” value is reported as -0.168. In the case of GAAGTATC, the “PBM E-score” value is reported as 0.0329. For ACTGGGAA, the “PBM E-score” value was -0.0873. With CAACCAGG the “PBM E-score” value was -0.135. With CCGGTAGA the “PBM E-score” value was 0.264. In the case of AATCGCTC, the “PBM E-score” value is reported as -0.14. With AGAGCACA the “PBM E-score” value was -0.168. In the case of TACGACCA, the “PBM E-score” value is reported as -0.207. In the case of ACCTATAT, the “PBM E-score” value is reported as -0.0149. With AAGAGCAG the “PBM E-score” value was -0.211. GATCGTCA was tested, and the “PBM E-score” value was -0.148. For GGTTTATA, the “PBM E-score” value was 0.0656. For ACTCGGAT, the “PBM E-score” value was 0.467. With TCGCTCCA the “PBM E-score” value was -0.171. In the case of GCACAACA, the “PBM E-score” value is reported as -0.19. For AAGCTATG, the “PBM E-score” value was -0.116. For GGTCGCTA, the “PBM E-score” value was 0.0304. In the case of AGGACGCA, the “PBM E-score” value is reported as -0.0219. In the case of CCCCGCGG, the “PBM E-score” value is reported as 0.166. For ACCACTGC, the “PBM E-score” value was -0.125. In the case of AGAGAACT, the “PBM E-score” value is reported as -0.114. With ACTTGGTG the “PBM E-score” value was -0.242. For ACAGCGTG, the “PBM E-score” value was -0.117. In the case of CCGGTGTC, the “PBM E-score” value is reported as 0.236. With GACTTCAA the “PBM E-score” value was -0.185. With CAAGTCGA the “PBM E-score” value was -0.18. For AGCCCGAA, the “PBM E-score” value was 0.264. For CGCACGAA, the “PBM E-score” value was -0.095. For CCAAAGAC, the “PBM E-score” value was 0.00579. ATAACCAG was tested, and the “PBM E-score” value was -0.169. With ATCGCCAG the “PBM E-score” value was -0.193. AATGAGAT was tested, and the “PBM E-score” value was -0.11. In the case of AAGCGTAG, the “PBM E-score” value is reported as 0.0345. For TCCTCCGA, the “PBM E-score” value was 0.344. In the case of ATATCAGA, the “PBM E-score” value is reported as 0.152. For GTAGATAA, the “PBM E-score” value was 0.135. TCGCCGAA was tested, and the “PBM E-score” value was 0.32. In the case of CGTGTTTC, the “PBM E-score” value is reported as 0.142. ACACAAGT was tested, and the “PBM E-score” value was -0.228. With TAAGTCCA the “PBM E-score” value was -0.0323. GACGCCCC was tested, and the “PBM E-score” value was 0.0188. In the case of CCAGATGC, the “PBM E-score” value is reported as -0.116. With ATTCTCTA the “PBM E-score” value was -0.191. With GCGGGATA the “PBM E-score” value was 0.217. AGGAGACG was tested, and the “PBM E-score” value was -0.167. With CGCAAGAC the “PBM E-score” value was -0.135. In the case of ATACATAA, the “PBM E-score” value is reported as -0.0857. In the case of GCCATATA, the “PBM E-score” value is reported as -0.0746. CCACACAG was tested, and the “PBM E-score” value was -0.164. For GGTAAATA, the “PBM E-score” value was 0.143. CTTAAGTA was tested, and the “PBM E-score” value was -0.166. In the case of CCAATTCA, the “PBM E-score” value is reported as -0.215. With AGTTACCA the “PBM E-score” value was 0.0897. With CATGTGCA the “PBM E-score” value was -0.0803. With AGCATGGC the “PBM E-score” value was -0.06. In the case of ACGGAGGG, the “PBM E-score” value is reported as 0.202. In the case of CCTGTACA, the “PBM E-score” value is reported as -0.178. GCTAGACC was tested, and the “PBM E-score” value was -0.0645. With ATGCAGGA the “PBM E-score” value was -0.242. In the case of CATAGAAA, the “PBM E-score” value is reported as 0.04. With GTTACGTA the “PBM E-score” value was -0.196. For CAGGCATG, the “PBM E-score” value was -0.167. In the case of AACGATGT, the “PBM E-score” value is reported as -0.0358. For AGCGATCC, the “PBM E-score” value was 0.108. With GCTCTGGA the “PBM E-score” value was -0.0616. AGCTCCCT was tested, and the “PBM E-score” value was -0.271. CAGCGACG was tested, and the “PBM E-score” value was -0.161. In the case of AGAATTAC, the “PBM E-score” value is reported as 0.115. GAATGTCA was tested, and the “PBM E-score” value was -0.0469. For CTCACACA, the “PBM E-score” value was -0.202. CCAGACCA was tested, and the “PBM E-score” value was -0.234. GCTAGAAA was tested, and the “PBM E-score” value was 0.0522. For CTATGCAC, the “PBM E-score” value was -0.12. In the case of GACACACC, the “PBM E-score” value is reported as 0.0797. For TGAGCCAA, the “PBM E-score” value was -0.23. For CAACTGGA, the “PBM E-score” value was -0.219. For GATGCGCC, the “PBM E-score” value was -0.0232. With AAGAATTG the “PBM E-score” value was -0.0708. With TAGCCATA the “PBM E-score” value was -0.215. For ATGGGAGC, the “PBM E-score” value was 0.00961. In the case of ACGCTAGC, the “PBM E-score” value is reported as -0.131. AGTGCATA was tested, and the “PBM E-score” value was -0.141. ATCTCCCC was tested, and the “PBM E-score” value was 0.055. For ACAAATTA, the “PBM E-score” value was 0.0895. In the case of ATGGGTCA, the “PBM E-score” value is reported as -0.235. TGACACAA was tested, and the “PBM E-score” value was -0.146. In the case of CCATCCCA, the “PBM E-score” value is reported as -0.0324. In the case of AATGTGTC, the “PBM E-score” value is reported as -0.0605. With CCCTTAGA the “PBM E-score” value was -0.394. With CGTTCTCA the “PBM E-score” value was -0.213. With GGTTCGAC the “PBM E-score” value was -0.0494. CAACCATC was tested, and the “PBM E-score” value was 0.0239. With ACTACGCA the “PBM E-score” value was -0.216. In the case of AACGGGCC, the “PBM E-score” value is reported as 0.0603. CAGAGAGC was tested, and the “PBM E-score” value was -0.206. In the case of ATTTACAG, the “PBM E-score” value is reported as -0.0857. With AAGTGTCT the “PBM E-score” value was 0.0186. AAAGAGTC was tested, and the “PBM E-score” value was -0.196. GCACCGCA was tested, and the “PBM E-score” value was -0.074. In the case of ACAGATTC, the “PBM E-score” value is reported as -0.0433. AGGTGAAG was tested, and the “PBM E-score” value was -0.178. With TGTCGACA the “PBM E-score” value was -0.237. GTACATAA was tested, and the “PBM E-score” value was -0.00711. ATCGGCAA was tested, and the “PBM E-score” value was 0.366. With ACTGCAGC the “PBM E-score” value was -0.077. In the case of ACCGCCAC, the “PBM E-score” value is reported as 0.0187. With AAGGAATT the “PBM E-score” value was 0.0157. For GCCGCCCC, the “PBM E-score” value was 0.245. With GATCAAGA the “PBM E-score” value was 0.0801. In the case of AATGAAAC, the “PBM E-score” value is reported as -0.0491. For AACGCGGG, the “PBM E-score” value was 0.329. For CACCGAGG, the “PBM E-score” value was 0.308.
